From publication PMC12136788
The list shows a part of the results.

B1: chr1:225611761:225611762:-_ENSG00000143815_ENST00000272163|hu_mus|hu_hu_hu_mus_True|18_58 (ssRNA)
RNA: GGGAGUUCUACAGUCCGACGAUCCCAGGCCAUCGGCCUCUGACCACUUCACCCUCAACAAACUUCCUACUUGGCAUUUUCUAUAAUUAGUCUGGCCGCGCUCCGGCGGGAACUCCAGACGGCUCCCGACAGUCACCAGCAGCCCAACAGAGGAUUGAGCAUCA
B2: chr7:35913284:35913285:+_ENSG00000122545_ENST00000399035|perfect_dup|FALSE|FALSE (ssRNA)
RNA: GGGAGUUCUACAGUCCGACGAUCAUCAGGCAUCUGACGUCUGUUCACUCGAGAUUCUGCAUUUAAGUAAUCUUCAAAUUUACUAUCAAUGUAGUCGAUAACAGGCUGCCAGCAAUUACUAUUAUCCACUGCAUCUCCAAAUCCCAACAGAGGAUUGAGCAUCA
B3: chr2:10942720:10942721:-_ENSG00000143870_ENST00000272227|hu_hu|FALSE|FALSE (ssRNA)
RNA: GGGAGUUCUACAGUCCGACGAUCAAUAACUUCUCGGUUGAAAUUCGAUGGAGUUAAUUCGAUCACAUCAUCACUAGAGGAAUACAGACCAUUCACUGCCAGAAAGAAGGUACAGCUCACCAGACCGAGCACCAGGAGAGCCAUCAACAGAGGAUUGAGCAUCA
B4: chr7:54825262:54825263:-_ENSG00000132432_ENST00000352861|hu_hu|hu_hu_hu_mus_False|18_18 (ssRNA)
RNA: GGGAGUUCUACAGUCCGACGAUCCUGCCGGCUGGGCUCCACAAACUGCAUUACCUGAUCCAUGUUUGUUGGAUGGCGGAUUGAGAGCGUAGAGACACGUAGCUCAGGAGAGAACCGGAUGGAGGCCAACCGGAAGCUGGCAACCAACAGAGGAUUGAGCAUCA
B5: chr7:102944291:102944292:+_ENSG00000105819_ENST00000453466|hu_hu|motif|central (ssRNA)
RNA: GGGAGUUCUACAGUCCGACGAUCGUUCAAUCUCUGCUUCUCCCAAUGUGCUGUUUUGUAUUAUAUCAGCAAGAAUUUCGGCAGCUCUUGGCAAGUCUUUAGAGAAUGCUUUGGCAUAGUAUACAGUCUGCUCUCUGGAGGUAUCAACAGAGGAUUGAGCAUCA
B6: chr1:58468927:58468928:-_ENSMUSG00000026034_ENSMUST00000148330|mus_mus|mus_mus_mus_hu_False|1_98 (ssRNA)
RNA: GGGAGUUCUACAGUCCGACGAUCAAUUACUGAAAAAUGAAAGAUGUACCUUAGCUAUGUACUUAAUGAACCAAAUUACCCAAACAAAAUAAACAUGGCAAUAUAAAAAUGUUAAGAAUUUACAAAGCUGUACAAAAAGACUGACAACAGAGGAUUGAGCAUCA
B7: chr1:66463027:66463028:+_ENSMUSG00000015222_ENSMUST00000114013|mus_mus|mus_mus_mus_hu_True|38_48 (ssRNA)
RNA: GGGAGUUCUACAGUCCGACGAUCUUUUCUUUCAGGAGUGGAAAUUCUGCCUCUCCCGGUUUUAAAAGGCUUUUCUUUUCUAUGUUUCUCGAGAGACGGUCUCCGAGCUUCCUUUUCAGCUUUCUCCUCUUUAGGAAUAGUUUCCAACAGAGGAUUGAGCAUCA
B8: chr3:148802587:148802588:-_ENSG00000071794_ENST00000310053|hu_hu|motif|central (ssRNA)
RNA: GGGAGUUCUACAGUCCGACGAUCUCCAACCACAUGACCUCUCAAACUUCCAAAUAAAACGGAAUCUACUUCUUCAUCACGGGUUAGAAAGUCAUCUGGAGGGAUAACAUCUUGGAAUUCAAAACGUGGAAAGAAAGUUGGAUACAACAGAGGAUUGAGCAUCA
B9: chr4:45007048:45007049:-_ENSMUSG00000049657_ENSMUST00000055028|mus_hu|FALSE|FALSE (ssRNA)
RNA: GGGAGUUCUACAGUCCGACGAUCGUUCUGAUUUGCAGUAAAGUUAUUUCCUCUGCUCUUGUUAAGAAAAUUCGAAAUACUAAAAGUGGACUUAUGCUCUAGGUUAUUUGUGACUUCCAAAAUAUGGAUAUCACCUACCCUGUCCAACAGAGGAUUGAGCAUCA
B10: chr11:77843920:77843921:+_ENSMUSG00000037791_ENSMUST00000049167|mus_mus|motif|central (ssRNA)
RNA: GGGAGUUCUACAGUCCGACGAUCGUUUUUAUAUACAGAAUACAGGAAAGUUUCUGUCAAGUCUAAAACAUUACAAUUACGGUGUACAUUGGUUGUGGGGAAGAGGAAGUAUCUGGGGUGAGGAGGAAGAGAAGUGGUAAGAACCAACAGAGGAUUGAGCAUCA
B11: chr1:21097501:21097502:-_ENSG00000127483_ENST00000312239|hu_mus|FALSE|FALSE (ssRNA)
RNA: GGGAGUUCUACAGUCCGACGAUCCUCUCUCUUCAGCGCUUGCUUGAGCAGAUAGCCCCUUCUCUCCAGACCCAGAGACGGGUACUUAUGAAUGAUGUACUUUCGAAUCGCAACCACCGAGGCGCCAGUCUUCUGGAAGCAUGCCAACAGAGGAUUGAGCAUCA
B12: chr8:104447970:104447971:+_ENSG00000164934_ENST00000297579|hu_hu|hu_hu_hu_mus_False|18_78 (ssRNA)
RNA: GGGAGUUCUACAGUCCGACGAUCAUACACUUCCCUGCUUCGGCUCUUGUCCACAGGAAAGAUUCGAAUAGACUUAUCAAAGCUGGCAGACACAAAUUCCUUCCCAGUGGGAGAGUAAUCCACAUCAAGUACUGCAGACACGUGCAACAGAGGAUUGAGCAUCA
B13: chr10:1063573:1063574:+_ENSG00000107937_ENST00000545048|hu_hu|FALSE|FALSE (ssRNA)
RNA: GGGAGUUCUACAGUCCGACGAUCCUUUCUUCUGGAGGUUUAUUUUGGAUAAAAUAGUUGAAGACAGACUACAAUGAGACAUUGUAAAAUAAGACUAGAAAAUAAUUUAAGAGCGUAUUUUAAGCACGGGAUUCCGACACACUCCAACAGAGGAUUGAGCAUCA
B14: chr14:31888013:31888014:+_ENSMUSG00000042323_ENSMUST00000112095|mus_mus|motif|central (ssRNA)
RNA: GGGAGUUCUACAGUCCGACGAUCGCUGAGUGCUGGAGAAAGAAGGAUCUCUCCAUUUUUGCAGAGUUCAUCACGAAUUCGGAUAAAAAACUGCUGAAGUUCUACAGCAUCCUCAUAUAUUUCGGAAUCUGUCCGGUUCAUCCUCAACAGAGGAUUGAGCAUCA
B15: chr4:134901438:134901439:-_ENSMUSG00000028809_ENSMUST00000134854|mus_mus|FALSE|FALSE (ssRNA)
RNA: GGGAGUUCUACAGUCCGACGAUCCUUCCGACUCCCUACUGCAACUCAACCACCUUGAGUUUAAUGUUAUAUCAUUUAUCUAAAUUGCAAAAGACGAACAAGCAAUAAUGAGUACACAACCACAAAAAAAGAAAAGAUUGUUUACAACAGAGGAUUGAGCAUCA
B16: chr7:149068622:149068623:-_ENSMUSG00000025139_ENSMUST00000001950|mus_hu|mus_mus_mus_hu_False|28_88 (ssRNA)
RNA: GGGAGUUCUACAGUCCGACGAUCGUGAGGCCUCUGAGUGUGGCUUGUGCUCUGCAGUGGGUUAGAGUUGUUAAUAUCACGGAACAUACCAUCUAGAACGUUCCAGUCUGCCUGACUACCUUCAUUCCCAAUGGAGAAGAAAUCCAACAGAGGAUUGAGCAUCA
B17: 7343084_7343204_354_5pUTR_ENSMUSG00000024968_ENSMUST00000066646|mouse|control|control (ssRNA)
RNA: GGGAGUUCUACAGUCCGACGAUCCGGCCGGGGGCACGCUCGCUCCGUGCGCCCCUCGGGGCUGGUUCUCCCCCGGGGAGAGUCGGGGCGCGUUGCCCUCGGGGAGCCCCGGAGCCGCGCCGCGCGCCUGCCCACGCUGUUUGGCAACAGAGGAUUGAGCAUCA
B18: chr2:66073698:66073699:-_ENSMUSG00000034848_ENSMUST00000102718|mus_hu|motif|central (ssRNA)
RNA: GGGAGUUCUACAGUCCGACGAUCUUGCUGGAUUUCAUUUAAAAAUUCUAGCUGCUGAUCUGCAUCCUGUAAUUGCCCUUCGGUCAACUGACAUUGGAUAAAUCCAACUAGGGCAGACACACUAGUCUCAUCAAGUGUCAUGGCCAACAGAGGAUUGAGCAUCA
B19: 121709820_121709940_1114_5pUTR_ENSMUSG00000042744_ENSMUST00000119892|mouse|control|control (ssRNA)
RNA: GGGAGUUCUACAGUCCGACGAUCGUUUUCAGAGCUGGAGCCAGUGUUGCUGUCUGGUGCUGGCAGCAUGUCCUCAUAUCCCCAAGAUACUAUGUGUUUGCCCCCAAGCAAACAGGAUGGGGAUCCAGGUCCCCCUUCCAAAAGCAACAGAGGAUUGAGCAUCA
B20: 72149530_72149750_466_3pUTR_ENSMUSG00000038535_ENSMUST00000098576|mouse|control|control (ssRNA)
RNA: GGGAGUUCUACAGUCCGACGAUCUACUGGCAAGGCAGCCACAGGAUUUGAUGCUGAAUUCAGGCAGCGUUGACUUGUAGGCUUGAAUGAAGCAGUAAAACCUCGAUUGAGUAUACCAUUCUUUAUUCCUCUUGAAUGAGAGCUCAACAGAGGAUUGAGCAUCA
B21: chr19:45035288:45035289:+_ENSMUSG00000036097_ENSMUST00000096053|mus_hu|FALSE|FALSE (ssRNA)
RNA: GGGAGUUCUACAGUCCGACGAUCAUUCUCCAGGGGAAACAAAGAUCUAAAAUCAAUCCCCAUAUUGAAAAACACAGCUGCUACAUCAGACAAUGAUGGGAUCCAUGGCCAAACUGGUGAGUCACUGAAGGUAUCAUUUCUAAUCAACAGAGGAUUGAGCAUCA
B22: chr17:73195629:73195630:+_ENSMUSG00000039770_ENSMUST00000045174|mus_mus|motif|central (ssRNA)
RNA: GGGAGUUCUACAGUCCGACGAUCACGGGUACCACCGAUAUGGUCAAGAAAGAUUCUGCCCAUUUUGACAACUGAAGUUCGGAAAAGCGGCGUGCUGGGAAUCGGCGCUGCCAGCAGCUCUUCGCUCCUCAGCUGGGUCGAAGCCAACAGAGGAUUGAGCAUCA

Molecular target: T1, UNK ZnF1-3 (human, UniProt Q9C0B0 31-174)
T1 sequence: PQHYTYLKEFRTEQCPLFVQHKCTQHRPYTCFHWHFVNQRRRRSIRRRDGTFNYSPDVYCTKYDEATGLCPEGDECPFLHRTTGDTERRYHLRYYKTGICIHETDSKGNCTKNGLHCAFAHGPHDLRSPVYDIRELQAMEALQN
Test: nsRBNS (natural sequence RNA bind-n-seq); RBNS binding buffer (assumed for nsRBNS): 25 mM Tris pH 7.5, 150 mM KCl, 3 mM MgCl2, 0.01% Triton X-100, 500 ug/ml BSA, 20 U/ml SUPERase-In, 4 C; UNK is unkempt and MSI1 is Musashi-1; names of the RNAs are library labels; protein concentration not given here; high values mean tight binding

Binder | binding signal [enrichment R]
B1 | 1.27
B2 | 0.823
B3 | 1.35
B4 | 0.796
B5 | 0.884
B6 | 2.78
B7 | 0.331
B8 | 0.991
B9 | 0.705
B10 | 1.9
B11 | 1.03
B12 | 0.958
B13 | 1.49
B14 | 1.04
B15 | 2.4
B16 | 0.651
B17 | 1.22
B18 | 0.732
B19 | 0.65
B20 | 1.01
B21 | 1.24
B22 | 0.718
